Experimental data taken from PubChem BioAssay AID720542 (National Center for Advancing Translational Sciences (NCATS), 2013).
Where “and” joins values, the source holds several entries; their conditions need not be identical. Equal values may be shown once. The whole screen tested about 360,000 compounds, of which about 740 (0.21%) were called active. The shares of active, inactive and inconclusive entries below differ from those in the screen. The call rests on the fitted dose curve; in most records, active means well fitted inhibition curve with a large enough effect; inconclusive means small, poorly fitted or top-dose-only effect; inactive means no such curve, though single readings can be large or run the other way. Potencies beside an inconclusive call are fits to weak or partial responses and may not hold up.

test system: Plasmodium falciparum AMA1 (3D7) - RON2 peptide interaction; assay: qHTS for Inhibitors of AMA1-RON; Towards Development of Antimalarial Drug Lead: Primary Screen; conditions: AlphaScreen AMA1-biotinylated RON2 peptide binding; activity change, negative = inhibition: at 58.2 µM (top of the series) unless noted; further: nearly all actives have a fitted effect of over 45% in size;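 on activity change, negative = inhibition: 0% = vehicle wells and -100% = peptide control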
Text: Plasmodium, the causative agent of malaria, is one of the world's deadliest parasitic diseases. Currently there is no vaccine available and there is widespread resistance to common anti-malarial drugs. This warrants novel, alternative approaches for developing improved therapy. During infection, one such essential interaction is between two parasite proteins, the apical membrane antigen1 (AMA1) that is translocated onto the merozoite surface and the rhoptry neck protein 2 (RON2), which is transferred to the red blood cells (RBC) membrane during invasion (Besteiro et.al., 2009). Recently, the Miller lab has shown that the interaction between AMA1 and RON2 is essential for junction formation of the parasite with the host cell (Srinivasan et.al., 2011). The binding of the RON2 peptide to the hydrophobic pocket in AMA triggers the formation of the moving junction which provides a firm anchor for the parasite to pull itself into the RBC using its actin-myosin motor; an irreversible step that commits the parasite for invasion. Only one AMA1 and RON2 genes exists in Plasmodium and there are no alternate pathways. Moreover, the region corresponding to RON2 peptide is conserved in all P. falciparum isolates for which sequences are available. The key residues in the AMA1 hydrophobic pocket that binds RON2 are also conserved and indicate a functional constraint governing this essential step in invasion since a short RON2 peptide (RON2L) corresponding to the binding region on AMA1 is sufficient to compete with the native RON2 protein and inhibits invasion (Tonkin et.al, 2011). Therefore, developing small molecule inhibitors of this interaction offers a promising target opening a new arena for anti-malarial therapeutics drug design.
In collaboration with the Miller lab, a quantitative High Throughput Screen using the AlphScreen technology was developed using a recombinant his-tagged AMA1 and a biotinylated RON2 peptide. This fluorescent screen was assayed against the NIH Molecular Libraries Small Molecule Repository (MLSMR). Inhibition of this protein-protein interaction is the desired outcome of this assay. However, due the limitations of this AlphaScreen assay, a large number of artifacts were observed. An AlphaScreen counterscreen was run to identify the true inhibitors, triage compound activity, and weed out false positives.
NIH Chemical Genomics Center [NCGC]
NIH Molecular Libraries Probe Centers Network [MLPCN]
Assay Submitter (PI): Louis Miller, National Institute of Allergy and Infectious Disease (NIAID)
Two microliters of his-tagged AMA1 3D7 allele protein (final concentration 25 nM) was dispensed into a 1,536-well assay plate. Small molecules and positive control peptides were pin-transferred (23 nL or 46 nL) via Kalypsys pin-tool equipped with a 1,536-pin array, resulting in final compound and peptide concentration ranges of 91.5 nM - 57.2 µM, and 15.6 nM - 2.00 µM, respectively. Unlabeled RON2 peptide or R1 peptide ([…]) that specifically binds the 3D7 AMA1 was used as a positive control that inhibited the binding of RON2L to AMA1. After 15 minutes incubation, 1 uL of biotinylated RON2 peptide (final concentration 25 nM) or buffer were dispensed and the assay plate was incubated for an additional 30 minutes at room temperature and protected from light. This was followed by an addition of 1 uL mixture of donor and acceptor beads (10 ug/mL final concentrations for each). The plates were incubated for 30 min at room temperature and read using the EnVision(R) plate reader (PerkinElmer). Maximum inhibition response was normalized to the positive control signal while no inhibition response was normalized to the DMSO treated wells.
Potency means the concentration at half of the fitted maximal effect; tags describe the fitted curve by direction and shape.

| SMILES | Potency | activity change, negative = inhibition |
| --- | --- | --- |
| O=[N+]([O-])c1ccc(Cl)c([N+](=O)[O-])c1 | inconclusive: 39.8 µM [inhibitor, single point] |  |
| Cc1ccc(NCc2ccccc2)cc1 | inconclusive: 10 µM [inhibitor, partial curve, poor fit] |  |
| CCC(=O)OCC(=O)c1cc(C)n(-c2ccc(Br)cc2)c1C | inconclusive: 35.5 µM [inhibitor, partial curve] |  |
| CCCCn1nnnc1C(c1ccccc1)N1CCN(c2ccc(C)cc2)CC1 (stereo not drawn) | inconclusive: 25.1 µM [inhibitor, partial curve] |  |
| CCOc1ccc(NC(=O)CN(C)C(=O)CCNC(=O)c2ccc(Br)cc2)cc1OCC | inconclusive: 39.8 µM [inhibitor, single point] |  |
| O=C(NC(c1ccc(-c2ccccc2)cc1)c1cnccn1)C1CCN(Cc2ccc3c(c2)OCO3)CC1 (stereo not drawn) | inconclusive: 28.2 µM [inhibitor, partial curve] |  |
| Cc1cccc(NC(=O)c2cc(Cl)nc3ccccc23)n1 | inactive |  |
| CN(C)c1ccc(CC(=O)N2CCCC(c3cc(C(=O)Nc4ccc(F)c(Cl)c4)no3)C2)cc1 (stereo not drawn) | inconclusive: 22.4 µM [inhibitor, partial curve] |  |
| Cc1cccc(N2CN(Cc3cccnc3)CNC2=S)c1C | inconclusive: 1.12 µM [inhibitor, full curve] |  |
| Cc1ccccc1CN1CCN(C(=O)c2ccc(F)cc2)CC1 | inconclusive: 31.6 µM [inhibitor, partial curve] |  |
| COc1cc(CNc2ccc(N3CCCC3)cc2)cc(Cl)c1OC | inconclusive: 1.58 µM [inhibitor, full curve] |  |
| CC(=O)Nc1ccc(S(=O)(=O)NC2=C(N3CCN(Cc4ccccc4)CC3)C(=O)c3ccccc3C2=O)cc1 | inconclusive: 12.6 µM [inhibitor, partial curve] and inconclusive: 20 µM [inhibitor, partial curve] |  |
| O=C(O)/C(=C\c1ccccc1)c1ccc2ccccc2c1 | inactive |  |
| O=[N+]([O-])c1ccc(Cl)cc1Sc1nc2ccccc2o1 | inconclusive: 26.7 µM [inhibitor, partial curve] |  |
| Cc1ccc(-c2ccccc2NC(=O)CCl)o1 | inactive |  |
| CCOc1nc(NCCO)nc(Nc2ccc([N+](=O)[O-])cc2)n1 |  | inconclusive: -34.8% [inhibitor] [at 2.32 µM] |
| COc1cc(CN2CCCC(C(=O)N3CCc4ccccc4C3)C2)cc(OC)c1OC (stereo not drawn) | inconclusive: 39.8 µM [inhibitor, single point] |  |
| N#Cc1cc2c(nc1Cl)CCCC2 | inactive |  |
